Results: PubChem BioAssay (NCI)
“And” between values parts separate entries of the source, which are not always exact repeats. Equal values may be shown once.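 Grown in 96-well plates, cells were treated for 48 hours with each compound at five concentrations. Insufficient inhibition: endpoint recorded as highest concentration tested. Here, GI50 denotes the concentration required for 50% inhibition of growth. TGI: total growth inhibition.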

Test system: NCI-H322M lung
Assay: growth of human tumour cells (NCI), 48 h

Q: What does the source list for CC(=O)N1N=C(c2ccc(C)cc2)CC1c1cn(-c2ccccc2)nc1-c1cccc(Nc2ccnc3cc(Cl)ccc23)c1 (centres undefined)?
A: GI50: > 100 µM; TGI: > 100 µM

Q: Which TGI does the source give for CN(C)CC(C)(C)CN1c2ccccc2Sc2ccccc21 here?
A: 28.8 µM

Q: How did the TGI turn out when CN(C)NC1=NS(=O)(=O)c2cc3c(=O)n(C)[nH]c3cc2S1 was run?
A: > 10 µM

Q: With C[C@]12CCc3nn(-c4ccccc4)nc3C1CC[C@@H]1C2CC[C@]2(C)C(=O)CCC12 (some centres undefined) as the compound, how does the TGI read?
A: > 100 µM

Q: Which TGI does the source give for CN1CCc2c(sc3ncn(Nc4ccc(F)cc4)c(=N)c23)C1 here?
A: > 100 µM

Q: How did the TGI turn out when CCN(CC)C(=O)CC12CCCCC1=Nc1ccccc12 (centres undefined) was run?
A: > 100 µM

Q: What does the source list for COCCn1c2c([n+](Cc3cnccn3)c1C)C(=O)c1ccccc1C2=O?
A: GI50: 0.0143 µM; TGI: 0.104 µM

Q: With Cc1cc(C)nc(NS(=O)(=O)c2ccc(NC(=O)COC(=O)c3cccc4c(=O)c5ccccc5[nH]c34)cc2)n1 as the compound, how does the TGI read?
A: 71.4 µM

Q: O=c1c2cc([N+](=O)[O-])ccc2n2n1CCCCC2 was tested. Which TGI did it give?
A: > 100 µM

Q: How did the TGI turn out when CC(=O)Nc1ccc(C2=N/C(=C\c3ccc(Cl)cc3)C(=O)O2)cc1 was run?
A: 76.2 µM

Q: Which TGI does the source give for S=C(S)NCCN1CCNCC1 here?
A: > 100 µM

Q: With COc1nc(NC2OC(CO)C(O)C(O)C2O)c(N)c(=O)[nH]1 (centres undefined) as the compound, how does the TGI read?
A: > 100 µM

Q: For CCCCCCc1cc2cc(C(=O)Nc3cccc(F)c3)c(=N)oc2cc1O, which TGI is on record?
A: 7.86 µM

Q: Which TGI does the source give for CSC1=Nc2ccccc2N=C(c2ccccc2)C1 here?
A: > 100 µM

Q: Which TGI does the source give for CCc1ccccc1NC(=O)C(=O)C1C(=O)N(c2ccccc2)N=C1N (centres undefined) here?
A: > 100 µM

Q: Which results are given for CCCCCCCCCCCCCCCCCC[S+](C)CC (centres undefined)?
A: GI50: 1.87 µM; TGI: 5.38 µM

Q: For O=C(/C=C/c1cccc(Br)c1)N1CCN(CCOC(c2ccccc2)c2ccccc2)CC1, which TGI is on record?
A: > 100 µM

Q: CC1(C)[C@H]2Cc3cc4nc5ccccn5c4cc3[C@@H]1C2 was tested. Which TGI did it give?
A: 36 µM

Q: CCOC(=O)c1cc([N+](=O)[O-])c(Sc2ncnc3nc[nH]c23)c([N+](=O)[O-])c1 was tested. Which TGI did it give?
A: 20.1 µM

Q: What does the source list for CO/C(=C1/NC(=O)C(Cc2ccc(O)c(Br)c2)N(C)C(=O)C(C)NC(=O)CCC/C=C(\C)CCC(C)OC1=O)c1ccccc1 (centres undefined)?
A: GI50: 0.134 µM; TGI: 43.7 µM

Q: What does the source list for COc1cc(C2CC(c3cccc(Nc4ccnc5cc(Cl)ccc45)c3)=NN2c2ccccc2)cc(OC)c1OC (centres undefined)?
A: GI50: 53.3 µM; TGI: > 100 µM

Q: O=CC1OC(=O)c2cc(O)c(O)c(O)c2-c2c(cc(O)c(O)c2O)C(=O)OC1C1OC(=O)c2cc(O)c(O)c(O)c2-c2c(O)c(O)c3oc(=O)c4c(c(O)c(O)c5oc(=O)c2c3c54)-c2c(cc(O)c(O)c2O)C(=O)OCC1O (centres undefined) was tested. Which TGI did it give?
A: > 100 µM

Q: How did the TGI turn out when NS(=O)(=O)c1ccc(NC(=O)c2ccc3nc4ccccc4c(Nc4ccc(S(N)(=O)=O)cc4)c3c2)cc1 was run?
A: > 100 µM

Q: For C[C@@H]1CC[C@@]2(C)[C@H](C)/C(=C\COC(=O)/C=C/c3ccc(O)c(O)c3)CC[C@@]12C, which TGI is on record?
A: 26.9 µM

Q: C#CCNC(=O)CC[C@@H](C)[C@H]1CC[C@H]2[C@@H]3CC[C@@H]4CC(=O)CC[C@]4(C)[C@H]3CC[C@]12C was tested. Which GI50 did it give?
A: 21.9 µM

Q: And the TGI?
A: 74.5 µM

Q: For OCC1OC(n2cnc3c(Cl)nc(Nc4ccc(Cl)c(Cl)c4)nc32)CC1O (centres undefined), which TGI is on record?
A: 39.7 µM

Q: How did the TGI turn out when O=C(CC(=O)c1cccc([N+](=O)[O-])c1)C(=O)Nc1ccccc1 was run?
A: > 100 µM

Q: N#CCCN(c1ccc(C=O)cc1)S(=O)(=O)c1ccccc1 was tested. Which TGI did it give?
A: > 100 µM

Q: Which GI50 does the source give for Cc1cc(C)c2c(c1)N(C)c1ncnc(-n3cnc4cc(C)ccc43)c1CC2C (centres undefined) here?
A: 6.35 µM

Q: And the TGI?
A: 34.9 µM

Q: CCCCOC(=O)c1c(C)[nH]c(/C=C2\N=C(c3ccc[nH]3)C=C2OC)c1C was tested. Which GI50 did it give?
A: 0.502 µM

Q: And the TGI?
A: 4.65 µM

Q: With COc1cc(C(c2ccc3c(c2)OCO3)C2SCCCS2)cc(OC)c1OC (centres undefined) as the compound, how does the TGI read?
A: > 100 µM

Q: Which TGI does the source give for Cc1cc(Cl)cc2c1NC(=O)C2(O)C(C(=O)c1ccccc1)c1ccccc1 (centres undefined) here?
A: > 100 µM

Q: With COC(=O)c1c2c(c(C)[n+]([O-])c1C)C(=O)C(NCc1ccc(O)cc1)=CC2=O as the compound, how does the GI50 read?
A: 1.52 µM

Q: What about the TGI of the same compound?
A: 2.87 µM

Q: Which TGI does the source give for CCC(C)C1NC(=O)C(NC(=O)C(CC(C)C)N(C)C(=O)[C@@H]2CC(O)CN2C(=O)[C@H](C)O)C(C)OC(=O)[C@H](Cc2ccc(OC)cc2)N(C)C(=O)[C@@H]2CCCN2C(=O)[C@H](CC(C)C)NC(=O)C(C)C(=O)[C@H](C(C)C)OC(=O)CC1O (some centres undefined) here?
A: 2.08 µM

Q: For CC1=CC[C@@H](C(C)(C)O)C[C@@H]1O, which TGI is on record?
A: > 5000 µM

Q: How did the TGI turn out when [O-][N+]1=C2CCC/C(=N/O)C2(O)C2CCCCC21N1CCOCC1 (centres undefined) was run?
A: > 100 µM

Q: Which TGI does the source give for C/C(CCN(C)C)=N\OC(=O)c1ccccc1 here?
A: > 100 µM

Q: CN(C)c1ccc(/C=c2/c3cc(O)ccc3n3c2cc(-c2ccccc2)[n+]3C)cc1 was tested. Which GI50 did it give?
A: 3.66 µM

Q: With CC#CC#C/C=C1\C=CC2(OC=CC2O)O1 (centres undefined) as the compound, how does the TGI read?
A: > 23.3 µM

Q: How did the GI50 turn out when CC(=O)N[C@@H](Cc1ccc(OP(=O)(O)O)cc1)C(=O)N[C@H]1CCC(=O)N2CCC[C@@H](C(=O)NC3CCc4ccccc43)N2C1=O (some centres undefined) was run?
A: > 25 µM

Q: And the TGI?
A: > 25 µM

Q: How did the TGI turn out when CC1CCc2c(sc3ncnc(N/N=C/c4ccc(Cl)cc4)c23)C1 (centres undefined) was run?
A: > 100 µM

Q: N#C/C(=C\c1ccc[nH]1)C(=O)c1ccccc1 was tested. Which TGI did it give?
A: > 100 µM

Q: For NC1NCCC(=O)N1CCc1c[nH]c2ccccc12 (centres undefined), which TGI is on record?
A: 63.4 µM

Q: With c1cc(CSc2ncnc3nc[nH]c23)ccn1 as the compound, how does the TGI read?
A: > 100 µM

Q: How did the TGI turn out when Cc1cc(N=Cc2c(CO)cnc(C)c2O)c(N=Cc2c(CO)cnc(C)c2O)cc1C was run?
A: > 100 µM

Q: Which GI50 does the source give for Cn1c(=O)c(Oc2ccc(F)cc2F)cc2cnc(NCC(C)(C)O)nc21 here?
A: > 25 µM

Q: And the TGI?
A: > 25 µM

Q: With CN1CCN(CCC=C2c3ccccc3Sc3ccc(S(=O)(=O)N(C)C)cc32)CC1 as the compound, how does the GI50 read?
A: 10.2 µM and 17.5 µM

Q: What about the TGI of the same compound?
A: 53 µM and 63 µM
